The values that follow come from the supplement of paper PMC12632987.

Over roughly 1,800 sequences, “median log2 fold change of GCK-ALFA target abundance (FLAG IP / Myc IP barcode read proportion)” has its median near 0.14; the lowest 2% begin near -0.84. The list shows a part of the results.

T1: TRAF2, Q12933
T1 chain: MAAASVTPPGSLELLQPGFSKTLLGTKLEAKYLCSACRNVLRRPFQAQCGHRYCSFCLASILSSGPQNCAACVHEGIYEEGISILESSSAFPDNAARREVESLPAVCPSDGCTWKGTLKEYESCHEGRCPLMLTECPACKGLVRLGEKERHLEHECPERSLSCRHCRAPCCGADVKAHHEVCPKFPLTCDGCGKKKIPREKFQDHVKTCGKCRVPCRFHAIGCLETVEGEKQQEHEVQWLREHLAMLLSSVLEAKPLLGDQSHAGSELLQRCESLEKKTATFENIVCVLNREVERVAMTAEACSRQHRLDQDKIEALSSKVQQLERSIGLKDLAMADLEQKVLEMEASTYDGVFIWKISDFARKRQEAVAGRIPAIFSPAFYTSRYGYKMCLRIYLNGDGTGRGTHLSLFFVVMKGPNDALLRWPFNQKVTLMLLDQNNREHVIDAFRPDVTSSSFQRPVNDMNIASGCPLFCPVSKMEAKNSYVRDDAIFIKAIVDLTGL

B1: traf2_out_3_89_2289 (protein)
chain: EEERERKIEEARERARRYVRGFRKNAERVAKEMLAEGMSLDTLRGVLEAARTAIVEVFRETLEEEGIDEETREELLEELDRELQAIVDEVVAAAEAARAA
B2: traf2_out_20_3_2103 (protein)
chain: KELEEELKKALEKAKKLLEEAAKLADKETAKKLEKLKKKVEASEELDYSDRLVELSEVRREVLKLAQEAKKAGKEKLAKVLEEAADALNKAMNLLMKIIE
B3: traf2_out_13_95_1222 (protein)
chain: SKEANEKLRKVSNDMLDKSEAVIDELEEKLAPYPETQPAMDEIRHAFNNGGIHAAIHKLREAAEKFPEVKELFEEAIEKLEAIRKEAGKEVAKIDKEDEE
B4: traf2_out_9_108_2597 (protein)
chain: MSREELADEIFEEVVGTVEEKVPEFKLSEEERENIRRTLLRIVRLSDISDRTTIRSITASLVLLSARDLSDETLEKIAEVLKEIDPSTKSTVDRTLSLLK
B5: traf2_out_13_95_1189 (protein)
chain: EEEKRKKYKEVTNAIADDLLAHADAQIAAITAATGDPALGAELRRVLNRYGVRALIHRIRELAAARPEHKALYDAAAADLEAKRREAGKRVAEAEKAIEA
B6: traf2_out_18_167_1846 (protein)
chain: EEEIEKQKRELSDRLVELSEVKRAARLTLQALETDPSKVPETLKKLEEEAKSIPELQPLVEKAKKALEAGDREGLRKTLEELIEKAQELMNEVLKEYEAL
B7: traf2_out_17_162_1505 (protein)
chain: SETKEKLEKLQKELEKLKKELEKLKKKLPKLKEMSKEELTDLLVEVSELKRRARELAEELKKLAKETGSEEAKKLLKEAEKLAEEAQRIANEVYKELEAK
B8: traf2_out_17_162_1627 (protein)
chain: SALAAERAAAEAELAALRAKLKELEEKAKRIDELSKEELTDLLVEASEARRRARELAERLRAWRAEHDDPALDTLIDEAEAVAEEFQRLANLFYKKLLEK
B9: traf2_out_16_104_1394 (protein)
chain: MEERKREFEEIIRRYEEIAERAGRLANELYKLYLKADPERKTALSDAMVEASELRREALLAAQEAREALETGGDLEEQRKRLEELEKRLEELEARVKELK
B10: traf2_out_18_117_1788 (protein)
chain: AEREALIAELEAIAARTGAAASKLGKLVLENWEKLTPEEKSEAFDVLADLSEVRREAQLLIHRITEEDLPVEEARAELARLRERADAALAAAEAKIKKIE
B11: traf2_out_13_95_1144 (protein)
chain: SKEVAEKINAIADEMLEKKDEILDKLEEELKKKGKLTPELEKALEEAKNSSISTAIHILKELSKKYPEIKEELDKAIEELEEIRREAGRRVAEILKEEEE
B12: traf2_out_15_180_1314 (protein)
chain: MTEEELKAKIDAANELADEVDDRLKALLAANPELTPEERQALRAASRSLLTLLFNGEEEDAAAALERVAAQLSPKAAALLRELYEWIKKKVAEIKKKLAA
B13: traf2_out_16_104_1413 (protein)
chain: AAAADAEFAAAIARLEKIADEANRLANEIYKLMEKASPEEKKKLSDLLVKASELRREALQAAQAIKAARAAGGDPAEAKATVKELEEKLKELKKELEKLK
B14: traf2_out_17_162_1483 (protein)
chain: AELEARLAALEARLEALEKELEELKKELEKLKEKSKEELTDLLVRASEARREALALAEEIRSLEPEIGAERAGALRDRALAIAEEFQRIANKIYKELEKK
B15: traf2_out_11_155_730 (protein)
chain: DAARAAQNAIVDFNLEVGDELAKEVEAIIEEIEKKDPEVAKELRKIFEKHKKYSYTSAARAVIDLLREKGYEEEAEKLEKALEEAQKRMSRKNQEIEAAL
B16: traf2_out_16_177_1457 (protein)
chain: DLAKVMDRLVILSYIRRAALRIVADDSPEAEEYLRKAREEAEAAGDEEGLALIERVRALAAEDTPEARAELRALAAEAQREAQRLADEAEALIKARAAAE
B17: traf2_out_6_166_2476 (protein)
chain: DEEILKRIREVVKEFSKYSAEDIIEAFEIIAKERSDERALLARQLASGVRQAQKAGLPIETILSAMADGWLALGVDPELILELLEEILKKVKEIQKEKEE
B18: traf2_out_15_48_1342 (protein)
chain: SVEELRKVASEIADEADATRDEVAAELRAIKPQASPEVAAQLDAIIAALAAGASLRDVLAQIQTVIPQASPEVAAQLQALADKIQATIKRMSKRMDEVLK
B19: traf2_out_16_104_1390 (protein)
chain: GAEKEKRFEKIKKELLEIAEKAGKIANEAYKLYEKASPEEKKKLSDLLVEASKLRREALLAAQEVEEWLKTGGDLEEAEKKLKKLKEELKKIEKKLKELK

The target of this assay is T1, TRAF2, Q12933. In words: median log2 fold change of GCK-ALFA target abundance (FLAG IP / Myc IP barcode read proportion) (log2 ratio); each designed protein is fused to an ALFA-tag nanobody in HEK293 cells to bring the named protein to FLAG-tagged glucokinase (GCK); Myc marks an untargeted standard; higher = target protein stabilised (more abundant). Conditions: target protein: 3xFLAG-MCP-GCK-ALFA reporter; HEK293 landing pad (RPLP). In short, it runs like this:
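Sequencing of reverse-transcribed, amplified circular RNA barcodes from anti-FLAG and anti-Myc immunoprecipitates provided the readout for an ALFA-nanobody-fused binder library recombined into HEK293 landing-pad cells. Those cells were induced with 2 μg mL^−1 doxycycline, transfected with a plasmid expressing a FLAG-tagged target and a Myc-tagged standard, and lysed after 48 h. Target abundance is the per-binder median log2 ratio of FLAG to Myc barcode read proportions. Only barcodes at a proportion of ≥10^−7 in both replicates and binders with ≥3 barcodes per replicate were kept, with a 10^−6 pseudocount added before the two replicates were pooled.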
Regarding B1, the “median log2 fold change” value was -0.809.
Under B2 stands 0.103.
For B3 the value was 0.236; for B4, -0.619.
As to B5, the “median log2 fold change” value was -0.147.
As for B6, the “median log2 fold change” value amounted to 0.318.
For B7 the value was -0.133; for B8, 0.326.
For B9, the “median log2 fold change” value stood at 0.194.
Take B10: the “median log2 fold change” value was 0.0185.
For the molecule B11, the “median log2 fold change” value is -0.545.
Under B12 stands 0.309; under B13, 0.0972.
As to B14, the “median log2 fold change” value turned out to be 0.389.
On to B15, for which the “median log2 fold change” value turned out to be 0.541.
For B16 the value was -0.0228.
Under B17 stands 0.0813; under B18, 0.255; under B19, 0.267.
